# Experimental data taken from the supplement of paper PMC12217912.
# The list shows a part of the results. Sequences were assembled here from the parent chain. Values near 0.05 are background.
# B1: TEV protease; numbered along this chain (parent)
# chain: MGESLFKGPRDYNPISSSICHLTNESDGHTTSLYGIGFGPFIITNKHLFRRNNGTLVVQSLHGVFKVKDTTTLQQHLVDGRDMIIIRMPKDFPPFPQKLKFREPQREERICLVTTNFQTKSMSSMVSDTSCTFPSGDGIFWKHWIQTKDGQCGSPLVSTRDGFIVGIHSASNFTNTNNYFTSVPKNFMELLTNQEAQQWVSGWRLNADSVLWGGHKVFMVKPEEPFQPVKEATQL
# Variants of: B1
# Test: raw area under fraction-flipped curve 0-4 h after induction (AUC4h, not background-subtracted), DNA-recorder readout of cleavage of the substrate (dimensionless); higher = more cleavage of the substrate by the protease variant
# Details: temperature: 34 °C; time window: 0-4 h after rhamnose induction
# Description: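 In vivo DNA recorder in E. coli TOP10(DE3) ΔrhaA at 34 °C. Each TEVp single-site mutant (parent TEVp 0) is paired with a single-site variant of the 7-mer TEVs (canonical ENLYFQ|S). The substrate sits between flexible linkers in a Bxb1-sfGFP-TEVs-SsrA fusion, so cleavage stabilises Bxb1 and speeds flipping of a recombination array, read by NGS. The value is the raw area under the fraction-flipped curve over 0-4 h after rhamnose induction (AUC4h), with ≥20 reads per time point. It is not background-subtracted; inactive controls average about 0.047.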
# 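Also: Bxb1 expression induced with 0.2% (w/v) L-rhamnose at OD600 near 0.5, cultures sampled hourly, flipped fraction per protease–substrate barcode pair counted by paired-end Illumina sequencing.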
Variant,area with substrate ENCYFQS,area with substrate ENEYFQS,area with substrate ENFYFQS,area with substrate ENHYFQS,area with substrate ENMYFQS,area with substrate ENNYFQS,area with substrate ENPYFQS,area with substrate ENRYFQS,area with substrate ENSYFQS,area with substrate ENTYFQS
M188R,0.0642,0.0749,0.0612,0.0735,0.0727,0.0513,0.0514,0.0579,0.0594,0.0623
D11T,0.0569,–,–,0.0479,0.0713,–,0.0564,–,0.0608,–
T159V,0.0621,0.0558,–,–,–,0.0725,0.0584,0.0636,–,–
W199Q,0.0843,–,–,–,–,0.063,–,0.0551,–,0.0629
K142N,0.0651,0.0652,–,0.0989,–,–,–,–,–,0.0642
L235C,0.0606,0.0635,–,–,0.0789,0.0839,–,0.0762,0.0756,–
P89C,0.0565,–,–,–,–,–,0.052,–,–,–
N193Q,0.0489,–,0.0682,–,0.064,–,–,–,–,–
N193Y,0.0593,0.0684,–,–,–,0.0724,–,–,–,–
N193C,0.0762,–,–,0.0602,–,0.0508,–,0.0553,–,0.0702
Q97E,–,0.0532,–,–,0.0768,–,0.0466,–,0.0628,0.047
K7Y,0.0609,–,0.048,–,0.0846,0.0571,–,–,–,0.058
K7H,0.0693,–,–,–,–,0.0612,0.0909,–,–,–
Q118L,0.0686,0.0717,–,–,–,–,0.0554,–,–,–
V165L,0.0707,–,–,0.0695,–,0.0578,–,–,0.0586,0.033
V165M,0.0452,0.0616,0.0574,0.0508,–,–,0.05,0.063,0.0721,–
T70F,0.0637,0.0416,–,–,–,–,–,–,0.0572,0.0575
M125Y,0.0623,–,–,–,0.073,0.0317,–,–,0.0498,0.0712
M125W,0.0573,–,–,0.053,–,–,–,–,0.0524,–
F38E,0.051,–,0.0481,–,–,–,–,–,–,–
G35T,0.0474,0.0684,0.0684,–,–,–,–,0.0369,–,0.0509
D82V,0.053,0.0421,0.0508,–,–,–,–,0.058,0.0496,0.0571

Variant,area with substrate ENCYFQS,area with substrate ENEYFQS,area with substrate ENFYFQS,area with substrate ENHYFQS,area with substrate ENMYFQS,area with substrate ENNYFQS,area with substrate ENPYFQS,area with substrate ENRYFQS,area with substrate ENSYFQS,area with substrate ENTYFQS
V113Y,0.0722,0.0648,–,–,0.0655,0.0404,–,0.0614,0.0695,–
F173T,0.0665,0.06,–,–,0.0648,0.03,–,–,0.0756,0.051
C131E,0.0785,–,–,–,–,–,–,–,–,–
W203D,0.078,–,–,–,–,0.0447,–,–,–,–
Q59N,0.0667,0.0504,–,0.0717,–,–,–,0.0563,–,–
L99M,0.0733,0.0442,0.0749,–,–,–,–,0.055,–,0.0545
F95N,0.0582,–,0.0627,–,–,0.0548,–,–,0.0562,–
F117P,–,0.074,–,–,0.0791,0.0856,–,0.0842,0.0633,0.0685
D69F,0.0493,0.0534,–,0.0654,–,–,–,0.0576,0.0645,0.0622
A207R,0.067,0.0647,–,–,–,0.0577,–,–,0.0693,–
N186R,0.0551,–,–,–,–,–,–,–,–,–
C111A,0.0819,–,0.0456,0.0465,0.0563,–,–,–,0.062,0.0689
G202W,0.0585,0.0446,0.0589,0.052,–,0.039,0.0674,–,0.0505,0.0693
P9N,0.0578,–,0.0608,0.0505,–,–,–,–,–,–
S209E,0.0702,0.0581,0.0614,–,–,–,0.0586,0.122,0.0628,0.0584
S209H,0.0675,–,–,–,0.0702,–,–,0.0624,0.0713,0.0733
S209A,0.0625,–,–,–,–,–,–,–,–,0.0604
F92L,0.0715,–,0.0617,–,–,0.071,–,0.0638,–,0.0563
K230A,0.0564,0.0359,–,–,0.0725,–,–,–,–,0.0505
A170E,0.0518,0.0647,–,–,–,–,0.0636,–,–,–
I145G,0.065,–,–,–,–,–,–,–,0.0502,0.0609
I145N,0.0531,0.0606,–,0.0455,0.0662,–,–,–,0.11,–

# Same assay, conditions: temperature: 34 °C; time window: 0-4 h after rhamnose induction
Variant,area with substrate ENYYFQS,area with substrate ENVYFQS,area with substrate ENDYFQS,area with substrate ENIYFQS,area with substrate ENQYFQS,area with substrate ENWYFQS,area with substrate ENGYFQS,area with substrate ENKYFQS
M188R,0.0508,–,–,–,–,–,–,–
D11T,–,0.0998,–,–,–,–,–,–
T159V,–,–,0.0428,0.0946,0.0541,–,–,–
W199Q,–,0.0616,–,–,0.0614,0.0611,–,–
K142N,–,–,0.0475,–,0.0691,0.0249,–,–
L235C,–,0.0709,–,–,0.0755,–,–,–
N193Q,–,0.0452,0.0789,0.0973,0.0632,–,0.0992,–
N193Y,–,–,0.0567,–,0.0635,–,–,–
N193C,–,–,–,0.0639,0.061,–,0.0423,–
Q97E,–,–,0.0724,–,–,–,–,–
K7Y,–,–,0.06,0.106,–,–,0.0628,–
K7H,–,0.0778,–,–,–,–,0.09,–
Q118L,0.0464,–,0.0624,–,–,0.0469,–,–
V165L,0.0483,0.0936,–,–,0.0651,–,0.0727,0.0427
V165M,–,–,0.0566,0.0642,0.0148,–,–,–
T70F,–,0.0483,0.0674,0.0801,0.0537,–,0.0597,–
M125Y,–,–,–,–,–,–,0.0581,–
M125W,–,–,0.0555,–,0.0454,–,0.0666,–
G35T,0.0666,–,0.0488,–,0.0467,0.0396,0.0611,0.0299
D82V,–,0.0495,–,–,–,–,–,–
V113Y,–,–,0.0598,–,0.0587,–,–,0.0503

Variant,area with substrate ENYYFQS,area with substrate ENVYFQS,area with substrate ENDYFQS,area with substrate ENIYFQS,area with substrate ENQYFQS,area with substrate ENWYFQS,area with substrate ENGYFQS,area with substrate ENKYFQS
F173T,–,0.0623,0.0672,0.0717,–,0.0587,–,–
C131E,–,0.0696,0.0709,–,0.0627,–,–,–
W203D,–,0.0289,0.0588,–,0.0518,0.0028,–,0.0631
Q59N,0.0449,0.0952,0.0583,0.0997,0.0739,–,–,–
L99M,–,0.0041,0.0554,–,0.0546,–,0.0321,–
F95N,0.0487,–,0.0576,–,0.0471,0.0414,–,–
F117P,–,–,0.068,0.0799,0.0518,–,0.0565,0.0636
D69F,–,–,0.067,–,0.0588,–,–,0.067
A207R,0.0733,0.0587,–,–,0.0509,–,0.0613,–
N186R,–,–,–,–,0.0734,–,–,–
C111A,–,0.106,–,0.0982,–,–,0.0516,–
G202W,–,–,0.0531,0.0685,0.0572,–,0.064,0.0452
P9N,–,–,0.0504,–,–,–,0.061,–
S209E,–,–,0.066,–,0.0696,0.0592,0.056,–
S209H,–,0.0921,0.103,–,0.0835,–,–,–
S209A,0.0532,–,–,–,–,–,–,–
F92L,–,0.0753,0.0769,0.101,0.0613,0.0658,–,0.0646
K230A,–,–,0.0856,–,0.0554,–,–,–
A170E,0.0543,0.0593,–,–,0.0966,–,0.0478,–
I145G,–,–,0.0458,–,0.0518,–,–,–
I145N,–,–,–,–,0.0469,–,–,–
